From PubChem BioAssay AID1845207 (Molecular Pharmacology Branch, DTP, NCI, 2023)
For part of its entries the source gives two or more results. They are shown here; other results are not. The source may hold further records. The records of an entry repeat one measurement across runs, samples, wells, individuals or studies. Additions like (4×) say how often a value occurs here. Dates in brackets are months of testing.

Tested on: NCI-H1876 tumor spheroid viability
Test: Anticancer human tumor NCI-H1876 cell line growth inhibition;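 further: spheroids exposed to compounds for seven days before the viability read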;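 on viability, T/C: percent of DMSO vehicle control viability so 100% = vehicle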
Details: spheroids with HUVEC and MSC; for IC50: compound alone; for viability, T/C: stronger effect = lower value
Description: Multicellular complex tumor spheroid response to DNA repair inhibitors in combination with DNA-damaging drugs
This study explores the anticancer activities of DNA-damaging drugs and inhibitors of DNA damage repair, both as single agents and in combinations. Complex tumor spheroids comprised of malignant cells, endothelial cells and mesenchymal stem cells served as an in vitro model for human solid tumors. This model system incorporates physiologically relevant features and patient-derived or established malignant cell lines with clinically relevant genetic alterations from many tumor types. Twenty-six patient-derived or established malignant cell lines were evaluated representing sarcoma, melanoma, small cell lung cancer (SCLC), non-small cell lung cancer (NSCLC), as well as bladder, ovarian and pancreatic cancers. The concentration ranges selected for each drug and investigational agent were based upon clinically achievable concentrations if the clinical Cmax of the agent was known.
Compounds. The drugs and compounds olaparib (NSC753686), talazoparib (NSC767125), berzosertib (NSC777718), elimusertib (NSC800525), nedisertib (NSC802822), VX-984 (NSC792969), AZD-1390 (NSC803789), temozolomide (NSC362856), topotecan (NSC609699), trabectedin (NSC813783), staurosporine (NSC755774), and gemcitabine (NSC613327) were obtained from the National Cancer Institute (NCI) Developmental Therapeutics Program Chemical Repository. The FDA-approved anticancer drug set is available from the Developmental Therapeutics Program at https://dtp.cancer.gov/organization/dscb/obtaining/available_plates.htm. […] The stock solutions were prepared in dimethyl sulfoxide (DMSO, Sigma-Aldrich, St. Louis, MO, cat. D2650) at 400-fold the tested concentration and stored at -70 degrees C. Prior to their use, the stock solutions were diluted in fresh medium and the final DMSO concentration in the assay was 0.25% (v/v). All drugs and investigational agents were tested over a range starting from a high concentration at or near the clinical Cmax and decreasing in half-log increments. If the clinical Cmax for an agent had not been determined, the highest concentration tested was 10 microM.
Cell Lines. The patient-derived cancer cell (PDC) lines: 156681-154-R-J1-PDC, 283228-195-R-J1-PDC, 287954-098-R-J1-PDC, 292921-168-R-J2-PDC, 349418-098-R-PDC, 425362-245-T-J1-PDC, 556581-035-R-J1-PDC, and BL0293-F563-PDC were received from the NCI Patient-Derived Models Repository (PDMR, https://pdmr.cancer.gov). The established cell lines HS-SY-2 (RRID:CVCL_8719), MPNST, and SYO-1 (RRID:CVCL_7146) were obtained from the Sloan Kettering Institute. The alveolar soft parts sarcoma cell line ASPS-1 (RRID:CVCL_S738) was established at the NCI and grown from internal seed stocks. The following established cell lines were purchased from the American Type Culture Collection (ATCC, Manassas, VA): G-401 (ATCC, cat. CRL-1441, RRID:CVCL_0270), SW982 (ATCC, cat. HTB-93, RRID:CVCL_1734), VA-ES-BJ (ATCC, cat. CRL-2138, RRID:CVCL_1785), NCI-H719 (ATCC, cat. CRL-5837, RRID:CVCL_1582), NCI-H196 (ATCC, cat. CRL-5823, RRID:CVCL_1509), NCI-H841 (ATCC, cat. CRL-5845, RRID:CVCL_1595), NCI-H1618 (ATCC, cat. CRL-5879, RRID:CVCL_1480), NCI-H1876 (ATCC, cat. CRL-5902, RRID:CVCL_1503), DMS 114 (ATCC, cat. CRL-2066; RRID:CVCL_1174), NCI-H211 (ATCC, cat. CRL-5824; RRID:CVCL_1529), and SW 1271 (ATCC, cat. CRL-2177, RRID:CVCL_1716). The small cell lung cancer cell line COR-L88 was purchased from Sigma-Aldrich (cat. 92031917-1VL, RRID:CVCL_1141). The non-small cell lung cancer cell lines NCI-H226 (RRID:CVCL_1544) and NCI-H322M (RRID:CVCL_1557) were established at the NCI and grown from internal seed stocks. Pooled donor human umbilical vein endothelial cells (HUVEC, Lonza, cat. CC-2519) and human mesenchymal stem cells (hMSC, Lonza, cat. PT-2501) were purchased from Lonza (Walkersville, MD).
Cell Culture. All cells were maintained in an incubator at 37 degrees C and 5% CO2 with 95% humidity. […]

**Q.** With Cc1cc(C)c(CNC(=O)c2cc(-c3ccc(CN4CCOCC4)cc3)cc3c2cnn3C2CCCC2)c(=O)[nH]1 as the compound, how does the IC50 read?
**A.** The IC50 was 838 nM, 902 nM [2019-11] and > 10 µM [2019-12].

**Q.** How did the viability, T/C (compound alone 0.949 µM) turn out when Cn1ncnc1[C@H]1c2n[nH]c(=O)c3cc(F)cc(c23)N[C@@H]1c1ccc(F)cc1 was run?
**A.** The viability, T/C was 33.8%, 11.2% [2019-11] and 6.17% [2019-12].

**Q.** For COc1ccc([C@@H](O)c2cc(-c3ncnc4cc(N5CCOCC5)ccc34)c(F)cc2Cl)nn1, which viability, T/C (compound alone 10 µM) is on record?
**A.** The viability, T/C was 4% [2019-11] and 33.2%, 16.8% [2019-12].

**Q.** Which viability, T/C (compound alone 0.00949 µM) does the source give for CC[C@@]1(O)C(=O)OCc2c1cc1n(c2=O)Cc2cc3c(CN(C)C)c(O)ccc3nc2-1 here?
**A.** Its viability, T/C is 40.6, 38.5, 35.8, 39.1, 43.7% [2019-11] and 24, 19.5, 18.2, 16.4, 16.1% [2019-12].

**Q.** Which viability, T/C (compound alone 0.0003 µM) does the source give for COc1cc2c(cc1O)CCNC21CSC2c3c(OC(C)=O)c(C)c4c(c3C(COC1=O)N1C(O)C3Cc5cc(C)c(OC)c(O)c5C(C21)N3C)OCO4 (stereo not drawn) here?
**A.** Its viability, T/C is 4.54, 27.7 (2×), 20.6, 27.6, 40.6, 27.5, 17.4, 14.3, 32.9%.

**Q.** CC(C)n1c(=O)n(C)c2cnc3cc(F)c(-c4ccc(OCCCN5CCCCC5)nc4)cc3c21 was tested. Which IC50 did it give?
**A.** Its IC50 is 394 nM [2019-11] and > 10 µM [2019-12].

**Q.** Cn1nnc2c(C(N)=O)ncn2c1=O was tested. Which viability, T/C (compound alone 31.6 µM) did it give?
**A.** The viability, T/C was 98, 79.7, 98.1, 98.3, 54.1, 101, 12.1, 105, 95.6, 92.5%.

**Q.** What about the viability, T/C (compound alone 100 µM) of the same compound?
**A.** The viability, T/C was 67.5, 60.7, 59.6, 65.3, 63.8, 70, 3.38, 72.3, 66.5, 46.7%.
